Laboratory results published in the antibiotic and cytotoxicity screens of Wong et al. (2023).
Some of the results follow.

What follows are compounds tested on S. aureus RN4220 (assay: growth inhibition call (relative growth <= 0.2)). Settings: 50 µM.
For C[C@@H]1CCCCO[C@H](CN(C)C(=O)Cc2ccccc2)[C@H](C)CN([C@H](C)CO)C(=O)c2cc(NS(=O)(=O)c3cccs3)ccc2O1, the growth inhibition call was “inactive”. With CO[C@@H]1CN(C)C(=O)c2cc(NS(=O)(=O)CC(F)(F)F)ccc2OC[C@@H](C)N(C(=O)c2ccc3c(c2)OCO3)C[C@@H]1C the growth inhibition call was “inactive”. For COCC(=O)N1C[C@H](C)[C@H](OC)CN(C)C(=O)c2cc(NC(=O)Nc3ccccc3)ccc2OC[C@@H]1C, the growth inhibition call was “inactive”. In the case of O=C(C[C@@H]1CC[C@@H]2[C@H](COC[C@@H](O)CN2Cc2cccc(C(F)(F)F)c2)O1)NCCc1ccncc1, the growth inhibition call was “inactive”. For C[C@@H]1CN([C@H](C)CO)C(=O)c2cccc(NC(=O)Nc3ccc4c(c3)OCO4)c2O[C@@H]1CN(C)S(C)(=O)=O, the growth inhibition call was “inactive”. C[C@@H]1CN([C@H](C)CO)C(=O)c2cc(NC(=O)Nc3cccc4ccccc34)ccc2O[C@H]1CN(C)Cc1ccc(-c2ccccc2)cc1 was tested, and the growth inhibition call was “inactive”. For Cc1noc(C)c1NC(=O)Nc1ccc2c(c1)C(=O)N([C@H](C)CO)C[C@H](C)[C@H](CN(C)Cc1ccncc1)OCCCC[C@H](C)O2, the growth inhibition call was “inactive”. For COc1ccc2c3c(n(c2c1)C)[C@@H](CO)N(C[C@]13CN(C1)C(=O)C1CC1)C(=O)CN1CCOCC1, the growth inhibition call was “inactive”. In the case of CC=Cc1ccc2n(c1=O)C[C@H]1[C@H](CO)[C@@H](C(=O)NCC3CC3)[C@@H]2N1S(=O)(=O)c1cn(C)cn1, the growth inhibition call was “inactive”. With C[C@@H]1CN([C@H](C)CO)S(=O)(=O)c2ccc(-c3cncnc3)cc2O[C@H]1CN(C)C(=O)C1CCCCC1 the growth inhibition call was “inactive”. For C[C@@H]1CCCCO[C@H](CN(C)C(=O)C2CCCCC2)[C@H](C)CN([C@H](C)CO)C(=O)c2cc(NC(=O)Nc3ccccc3)ccc2O1, the growth inhibition call was “inactive”. With Cc1ccc(S(=O)(=O)N2C[C@@H](O)COC[C@H]3O[C@@H](CC(=O)NCCCN(C)C)CC[C@@H]32)cc1 the growth inhibition call was “inactive”. C[C@@H]1CCCCO[C@@H](CN(C)C(=O)Nc2cccc3ccccc23)[C@H](C)CN([C@@H](C)CO)C(=O)c2cc(NS(=O)(=O)c3cccs3)ccc2O1 was tested, and the growth inhibition call was “inactive”. With O=C(O)CNC(=O)CNC(=O)Cn1nc(-c2ccccc2)ccc1=O the growth inhibition call was “inactive”. With Cc1noc(C)c1NC(=O)N(C)C[C@@H]1Oc2c(NS(C)(=O)=O)cccc2C(=O)N([C@H](C)CO)C[C@@H]1C the growth inhibition call was “inactive”. For C[C@H](CO)N1C[C@H](C)[C@@H](CN(C)C(=O)CN2CCOCC2)Oc2cc(/C=C/c3ccccc3)ccc2S1(=O)=O, the growth inhibition call was “inactive”. For COc1ccc(NC(=O)N2CCCCN3[C@H](CN(C)C(C)=O)[C@H](c4ccc(C#Cc5ccccc5)cc4)[C@@H]3C2)cc1, the growth inhibition call was “inactive”. With Cc1noc(C)c1NC(=O)Nc1ccc2c(c1)CC(=O)N([C@@H](C)CO)C[C@H](C)[C@H](CN(C)S(=O)(=O)c1cccs1)O2 the growth inhibition call was “inactive”. C[C@@H]1CN([C@@H](C)CO)S(=O)(=O)c2ccc(-c3ccccc3F)cc2O[C@H]1CN(C)S(C)(=O)=O was tested, and the growth inhibition call was “inactive”. For COc1cccc(S(=O)(=O)N2C[C@H](O)COC[C@H]3O[C@@H](CC(=O)N4CCOCC4)CC[C@@H]32)c1, the growth inhibition call was “inactive”. In the case of CNC(=O)CC1CCNCC1, the growth inhibition call was “inactive”. With Cc1noc(C)c1S(=O)(=O)Nc1ccc2c(c1)C(=O)N([C@@H](C)CO)C[C@H](C)[C@@H](CN(C)Cc1ccccc1)OCCCC[C@@H](C)O2 the growth inhibition call was “inactive”. For CCCCC/C=C/CCC(=O)N[C@H]1[C@H](Oc2c3cc4cc2Oc2ccc(cc2Cl)[C@@H](O[C@@H]2O[C@H](CO)[C@@H](O)[C@H](O)[C@H]2NC(C)=O)[C@@H]2NC(=O)[C@H](NC(=O)[C@@H]4NC(=O)[C@H]4NC(=O)[C@@H](Cc5ccc(c(Cl)c5)O3)NC(=O)[C@H](N)c3ccc(O)c(c3)Oc3cc(O)cc4c3)c3ccc(O)c(c3)-c3c(O[C@H]4O[C@H](CO)[C@@H](O)[C@H](O)[C@@H]4O)cc(O)cc3[C@@H](C(=O)O)NC2=O)O[C@H](CO)[C@@H](O)[C@@H]1O, the growth inhibition call was “active”. COc1ccc(S(=O)(=O)N2C[C@H](O)COC[C@H]3O[C@H](CC(=O)N[C@H]4CCN(Cc5ccccc5)C4)CC[C@@H]32)cc1 was tested, and the growth inhibition call was “inactive”. C[C@H]1CN([C@@H](C)CO)C(=O)c2cccc(NC(=O)Nc3ccc(F)cc3)c2O[C@@H]1CN(C)Cc1ccc(C(=O)Nc2ccccc2N)cc1 was tested, and the growth inhibition call was “inactive”. In the case of C[C@H](CO)N1C[C@H](C)[C@H](CN(C)Cc2ccc(Oc3ccccc3)cc2)Oc2cc(Br)ccc2S1(=O)=O, the growth inhibition call was “inactive”. CN1CCN(C(=O)C[C@@H]2C[C@H]3c4cc(NC(=O)c5ccc6c(c5)OCO6)ccc4O[C@H]3[C@@H](CO)O2)CC1 was tested, and the growth inhibition call was “inactive”. COc1ccc(NC(=O)N(C)C[C@@H]2Oc3ccc(NS(=O)(=O)c4cn(C)cn4)cc3C(=O)N([C@H](C)CO)C[C@H]2C)cc1 was tested, and the growth inhibition call was “inactive”. O=C(C[C@H]1CC[C@@H](NC(=O)c2cccnc2)[C@H](CO)O1)NCCN1CCCCC1 was tested, and the growth inhibition call was “inactive”. For COc1ccc(NC(=O)N(C)C[C@H]2Oc3ccc(NS(=O)(=O)c4cn(C)cn4)cc3CC(=O)N([C@H](C)CO)C[C@H]2C)cc1, the growth inhibition call was “inactive”. For C[C@@H]1CCCCO[C@@H](CN(C)C(=O)Cc2ccccc2)[C@H](C)CN([C@H](C)CO)C(=O)c2cc(NC(=O)Nc3ccccc3)ccc2O1, the growth inhibition call was “inactive”. With Cc1noc(C)c1NC(=O)N(C)C[C@@H]1OCCCC[C@@H](C)Oc2ccc(NC(=O)c3ccccc3)cc2C(=O)N([C@@H](C)CO)C[C@H]1C the growth inhibition call was “inactive”. For Cc1ccc(S(=O)(=O)N(C)C[C@H]2OCCCC[C@H](C)Oc3ccc(NC(=O)Nc4ccc(C(F)(F)F)cc4)cc3C(=O)N([C@H](C)CO)C[C@@H]2C)cc1, the growth inhibition call was “inactive”. With O=C(C[C@H]1C=C[C@H](NC(=O)C2CCC2)[C@H](CO)O1)NCCCN1CCOCC1 the growth inhibition call was “inactive”. In the case of C[C@@H]1CCCCO[C@@H](CN(C)C(=O)NC2CCCCC2)[C@H](C)CN([C@H](C)CO)C(=O)c2cc(NC(=O)Nc3ccc(F)cc3)ccc2O1, the growth inhibition call was “inactive”. COc1ccc(-c2cnc3c(c2)C(=O)N([C@H](C)CO)C[C@H](C)[C@@H](CN(C)C(=O)Cc2ccncc2)O3)cc1 was tested, and the growth inhibition call was “inactive”. For Cc1cc(C(C)(C)C)c(O)c(C)c1CC1=NCCN1.Cl, the growth inhibition call was “inactive”. In the case of C[C@@H]1CN([C@H](C)CO)C(=O)c2cc(NC(=O)c3ccccc3)ccc2O[C@@H](C)CCCCO[C@H]1CN(C)C(=O)Nc1ccc(F)cc1, the growth inhibition call was “inactive”. For CC(C)NC(=O)N[C@@H]1C=C[C@H](CC(=O)O)O[C@H]1CO, the growth inhibition call was “inactive”.
